{"source": "paper PMC4336329", "about": "(PLoS ONE, 2015)", "note": "About 2,200 (0.71%) of roughly 310,000 compounds showed an effect of 50% or more. Effects have a minus sign here. The list shows a part of the results."}
{"target": "human ether-à-go-go-related gene (hERG) potassium channel (human, UniProt Q12809)", "sequence (Q12809 whole entry, looked up)": "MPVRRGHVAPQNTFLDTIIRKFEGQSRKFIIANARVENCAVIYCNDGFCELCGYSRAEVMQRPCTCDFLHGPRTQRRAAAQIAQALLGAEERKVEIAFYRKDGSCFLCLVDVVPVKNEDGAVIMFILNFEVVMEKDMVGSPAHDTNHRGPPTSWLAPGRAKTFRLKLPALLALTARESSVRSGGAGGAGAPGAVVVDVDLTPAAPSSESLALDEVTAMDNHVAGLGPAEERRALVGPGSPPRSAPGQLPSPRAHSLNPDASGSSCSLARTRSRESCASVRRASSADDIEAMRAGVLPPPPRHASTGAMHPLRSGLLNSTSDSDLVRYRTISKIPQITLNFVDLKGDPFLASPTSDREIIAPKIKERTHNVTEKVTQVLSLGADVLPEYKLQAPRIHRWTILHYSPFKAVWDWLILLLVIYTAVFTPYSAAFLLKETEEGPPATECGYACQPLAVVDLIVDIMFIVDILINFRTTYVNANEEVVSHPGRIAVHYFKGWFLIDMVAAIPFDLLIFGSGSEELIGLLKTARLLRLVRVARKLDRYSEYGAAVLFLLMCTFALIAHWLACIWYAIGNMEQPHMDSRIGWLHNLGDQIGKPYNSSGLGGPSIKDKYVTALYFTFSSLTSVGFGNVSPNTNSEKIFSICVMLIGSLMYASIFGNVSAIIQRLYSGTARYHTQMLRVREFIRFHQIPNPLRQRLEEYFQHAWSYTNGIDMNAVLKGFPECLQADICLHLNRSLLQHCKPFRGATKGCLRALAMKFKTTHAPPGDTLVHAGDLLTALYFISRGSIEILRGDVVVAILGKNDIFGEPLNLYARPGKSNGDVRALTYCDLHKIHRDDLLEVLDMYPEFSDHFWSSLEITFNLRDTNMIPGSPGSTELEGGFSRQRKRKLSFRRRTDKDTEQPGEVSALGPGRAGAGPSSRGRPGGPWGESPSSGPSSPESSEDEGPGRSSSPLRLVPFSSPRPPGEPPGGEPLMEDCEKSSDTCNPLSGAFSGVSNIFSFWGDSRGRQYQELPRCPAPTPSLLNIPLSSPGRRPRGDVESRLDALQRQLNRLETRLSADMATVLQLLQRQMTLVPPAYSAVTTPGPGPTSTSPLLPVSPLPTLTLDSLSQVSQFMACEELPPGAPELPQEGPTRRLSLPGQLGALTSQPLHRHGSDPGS", "assay": "primary screen, population patch clamp on CHO cells stably expressing hERG", "units": {"hERG current change (%, negative = inhibition) at 1uM": "%"}}
{"smiles": "Cn1cccc1CC(=O)N/N=C/c1ccc(Cl)cc1", "hERG current change (%, negative = inhibition) at 1uM": 13.2}
{"smiles": "COc1cc(-c2cc(-c3ccc(F)cc3)nc(N)c2C#N)ccc1O", "hERG current change (%, negative = inhibition) at 1uM": 12.9}
{"smiles": "Cc1cc(C)n(-c2ccc(C(=O)OCC(=O)Nc3ccc(S(=O)(=O)N4CCCCC4)cc3)cc2)n1", "hERG current change (%, negative = inhibition) at 1uM": 12.9}
{"smiles": "COc1ccc2c3c([nH]c2c1)C(C)NCC3", "note": "(stereo not drawn)", "hERG current change (%, negative = inhibition) at 1uM": -0.283}
{"smiles": "COc1cc2c(C)nc3c(cnn3-c3ccccc3)c2cc1OC", "hERG current change (%, negative = inhibition) at 1uM": -12.2}
{"smiles": "CC(=O)C[C@H]1c2cc(C(F)(F)F)ccc2S(=O)(=O)N1C1CCCCC1", "hERG current change (%, negative = inhibition) at 1uM": 19.9}
{"smiles": "CC(C)COC(=O)N1CC(O)CC1C(=O)Nc1ccc2c(c1)OCO2", "note": "(stereo not drawn)", "hERG current change (%, negative = inhibition) at 1uM": 7.4}
{"smiles": "CCOc1ccc(CCNC(=O)C2CCCN(S(=O)(=O)N3CCOCC3)C2)cc1OCC", "note": "(stereo not drawn)", "hERG current change (%, negative = inhibition) at 1uM": 5.6}
{"smiles": "COC(=O)c1sccc1NC(=O)Cn1nnc(-c2ccc(C)cc2)n1", "hERG current change (%, negative = inhibition) at 1uM": 8.1}
{"smiles": "CCOc1cc(C(=O)NC(=S)Nc2cccnc2)cc(OCC)c1OCC", "hERG current change (%, negative = inhibition) at 1uM": 4.17}
{"smiles": "COc1ccc(C)cc1N(CC(=O)NCCSCc1cccc(Cl)c1)S(C)(=O)=O", "hERG current change (%, negative = inhibition) at 1uM": 8.1}
{"smiles": "C/C(CC1CC(C)(C)OC1=O)=N/Nc1nc(-c2ccccc2)cs1", "note": "(stereo not drawn)", "hERG current change (%, negative = inhibition) at 1uM": 5.22}
{"smiles": "COC(=O)c1ccc(NC(=O)COC(=O)COc2cccc3c2OC(C)(C)C3)cc1", "hERG current change (%, negative = inhibition) at 1uM": 14.7}
{"smiles": "Cc1ccc(NC(=O)C(C)N2C(=O)c3ccccc3S2(=O)=O)cc1Cl", "note": "(stereo not drawn)", "hERG current change (%, negative = inhibition) at 1uM": 10.7}
{"smiles": "CNC[C@H](CC1CCCCC1)NC[C@H](CO)NCCc1cccc(C(F)(F)F)c1", "hERG current change (%, negative = inhibition) at 1uM": 1.9}
{"smiles": "O=C(O)Cn1cc(C(=O)c2cccs2)c2ccccc21", "hERG current change (%, negative = inhibition) at 1uM": 8.25}
{"smiles": "COc1ccccc1OCCC(=O)OCC(=O)NC(C)c1ccccc1", "note": "(stereo not drawn)", "hERG current change (%, negative = inhibition) at 1uM": 7.63}
{"smiles": "COc1cccc(N2CCN(C(=O)c3ccc(CS(=O)c4ccccc4C)o3)CC2)c1", "note": "(stereo not drawn)", "hERG current change (%, negative = inhibition) at 1uM": 2.78}
{"smiles": "Cc1nn(-c2ccccc2)c2sc(C(=O)n3cccn3)cc12", "hERG current change (%, negative = inhibition) at 1uM": 3.3}
{"smiles": "CC(=O)N1Cc2cc(N)ccc2Oc2ccccc21", "hERG current change (%, negative = inhibition) at 1uM": 16.1}
{"smiles": "CC(=O)c1cc(CN2CCC(C(=O)Nc3ccc(-n4nc(C)cc4C)cc3)CC2)cs1", "hERG current change (%, negative = inhibition) at 1uM": 5.63}
{"smiles": "Cc1ccc(NC(=S)NCc2ccc(F)cc2)c(C)c1", "hERG current change (%, negative = inhibition) at 1uM": 13.9}
{"smiles": "CC(=O)c1cccc(NC(=S)N2CCN(S(=O)(=O)c3ccc(F)cc3)CC2)c1", "hERG current change (%, negative = inhibition) at 1uM": 6.72}
{"smiles": "O=C(NCc1ccccn1)C(=O)Nc1nc(-c2ccccc2)cs1", "hERG current change (%, negative = inhibition) at 1uM": 11}
